About 300 (9.4%) of roughly 3,200 compounds showed activity. This is a selection; strong and weak results do not stand in their true shares.
System: A673/TR/shEF
Test: cell viability (LOESS-normalised, relative to median of negative controls) (log2 ratio); higher = more viable cells (less compound effect), active = hit call of the paper (over 3 MAD below the median)
Details: treatment time: 72 h
How it was run: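 For three days, A673/TR/shEF Ewing sarcoma cells in 384-well plates (1,500 per well) were treated with library compounds at two or more concentrations or with DMSO controls, after doxycycline had been added or withheld 24 h beforehand to induce EWS-FLI1 shRNA knockdown. Viability was read by CellTiter-Glo luminescence on an Envision reader. The data were LOESS-corrected per plate, divided by the median of negative controls and log2-transformed.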

[1] = 0.25 µM, library screen: screen1, EWS-FLI1 expression: high (no doxycycline)
[2] = 0.25 µM, library screen: screen1, EWS-FLI1 expression: low (doxycycline-induced shRNA knockdown)
[3] = 2.5 µM, library screen: screen1, EWS-FLI1 expression: high (no doxycycline)
[4] = 2.5 µM, library screen: screen1, EWS-FLI1 expression: low (doxycycline-induced shRNA knockdown)
[5] = 0.103 µM, library screen: screen3, EWS-FLI1 expression: high (no doxycycline)
[6] = 0.103 µM, library screen: screen3, EWS-FLI1 expression: low (doxycycline-induced shRNA knockdown)
[7] = 0.308 µM, library screen: screen3, EWS-FLI1 expression: high (no doxycycline)
[8] = 0.308 µM, library screen: screen3, EWS-FLI1 expression: low (doxycycline-induced shRNA knockdown)
[9] = 0.926 µM, library screen: screen3, EWS-FLI1 expression: high (no doxycycline)
[10] = 0.926 µM, library screen: screen3, EWS-FLI1 expression: low (doxycycline-induced shRNA knockdown)
[11] = 2.8 µM, library screen: screen3, EWS-FLI1 expression: high (no doxycycline)
[12] = 2.8 µM, library screen: screen3, EWS-FLI1 expression: low (doxycycline-induced shRNA knockdown)
[13] = 8.3 µM, library screen: screen3, EWS-FLI1 expression: high (no doxycycline)
[14] = 8.3 µM, library screen: screen3, EWS-FLI1 expression: low (doxycycline-induced shRNA knockdown)
[15] = 25 µM, library screen: screen3, EWS-FLI1 expression: high (no doxycycline)
[16] = 25 µM, library screen: screen3, EWS-FLI1 expression: low (doxycycline-induced shRNA knockdown)
[17] = 0.25 µM, library screen: screen2, EWS-FLI1 expression: high (no doxycycline)
[18] = 0.25 µM, library screen: screen2, EWS-FLI1 expression: low (doxycycline-induced shRNA knockdown)
[19] = 2.5 µM, library screen: screen2, EWS-FLI1 expression: high (no doxycycline)
[20] = 2.5 µM, library screen: screen2, EWS-FLI1 expression: low (doxycycline-induced shRNA knockdown)

Measured: cell viability (log2)

C=C[C@@]1(C)CC(=O)[C@@]2(O)[C@](C)(O1)[C@@H](OC(C)=O)[C@@H](O)C1C(C)(C)CC[C@H](O)[C@@]12C (stereo partly specified)
inactive: [1] 0.111 | [2] 0.0265 | [3] 0.101 | [4] 0.067

O=c1c2ccccc2oc2ccc(O)cc12
inactive: [1] 0.114 | [2] 0.0801 | [3] 0.127 | [4] 0.172

CC1(C)CNc2cc(NC(=O)c3cccnc3NCc3ccncc3)ccc21
inactive: [5] -0.0358 | [6] 0.0106 | [7] 0.0947 | [8] 0.00283 | [9] 0.0481 | [10] -0.0207 | [11] 0.0668 | [12] 0.00605 | [13] 0.0301 | [14] 0.0197 | [15] 0.0462 | [16] -0.0119

COC(=O)C1=C(C)NC(C)=C(C(=O)OCCN(C)Cc2ccccc2)C1c1cccc([N+](=O)[O-])c1 (stereo unspecified)
inactive: [1] 0.089 | [2] -0.0157 | [17] 0.176 | [18] 0.0824 | [3] 0.15 | [4] 0.113 | [19] 0.107 | [20] 0.0778

Cc1ccccc1CNc1ncnc2c1ncn2[C@@H]1O[C@H](CO)[C@@H](O)[C@H]1O
inactive: [17] 0.1 | [18] 0.0941 | [19] 0.078 | [20] 0.0169

CC(C)=CCc1c2c(c3occ(-c4ccc(O)cc4)c(=O)c3c1O)C=CC(C)(C)O2
inactive: [1] 0.124 | [2] 0.0204 | [3] 0.117 | [4] 0.17

CCCC(=O)[O-].[Na+]
inactive: [5] 0.124 | [6] 0.035 | [7] 0.185 | [8] 0.077 | [9] 0.111 | [10] 0.0755 | [11] 0.137 | [12] 0.0493 | [13] 0.102 | [14] 0.0943 | [15] 0.209 | [16] 0.0373

C[C@@H]1C/C=C/C=C/C=C/C=C/[C@H](OC2O[C@H](C)[C@@H](O)[C@H](N)[C@@H]2O)C[C@@H]2O[C@](O)(C[C@@H](O)C[C@H]3O[C@@H]3/C=C/C(=O)O1)C[C@H](O)[C@H]2C(=O)O (stereo partly specified)
inactive: [5] 0.0488 | [6] 0.0464 | [7] 0.0456 | [8] 0.0497 | [9] 0.0317 | [10] 0.0938 | [11] 0.0554 | [12] 0.0621 | [13] 0.0808 | [14] 0.0825 | [15] 0.128 | [16] 0.0916

Cc1ccccc1C(OCCN(C)C)c1ccccc1 (stereo unspecified)
inactive: [1] 0.0484 | [2] 0.00928 | [17] 0.208 | [18] 0.0643 | [3] 0.0897 | [4] 0.134 | [19] 0.102 | [20] 0.103

CN(C)CCOC(c1ccc(Cl)cc1)c1ccccn1 (stereo unspecified)
inactive: [1] 0.0635 | [2] 0.14 | [3] 0.162 | [4] 0.124

C[C@@H]1CC[C@@]23CCC4(C)[C@@](C=CC5[C@@]6(C)CCC(=O)C(C)(C)C6CC[C@]54C)(OC2=O)C3[C@H]1C (stereo partly specified)
inactive: [1] 0.12 | [2] 0.0225 | [3] 0.0629 | [4] 0.0141

NC(=O)NC1NC(=O)NC1=O (stereo unspecified)
inactive: [1] 0.0962 | [2] 0.0535 | [3] 0.134 | [4] 0.0535

NCCCC(N)(C(=O)O)C(F)F (stereo unspecified)
inactive: [17] 0.185 | [18] 0.0732 | [19] 0.14 | [20] 0.0555

COc1c2ccoc2cc2oc(=O)ccc12
inactive: [1] -0.00257 | [2] -0.0928 | [3] 0.0783 | [4] -0.0832

O=C1CCC(N2C(=O)c3ccccc3C2=O)C(=O)N1 (stereo unspecified)
inactive: [5] 0.0389 | [6] 0.0275 | [17] 0.166 | [18] 0.0988 | [7] -0.0491 | [8] 0.0452 | [9] -0.059 | [10] -0.0217 | [19] 0.0663 | [20] 0.0496 | [11] 0.0136 | [12] 0.0207 | [13] 0.0491 | [14] 0.0126 | [15] -0.00372 | [16] 0.107

COc1ccc(-c2nc3ccc(C4=NNC(=O)CC4C)cc3[nH]2)cc1 (stereo unspecified)
inactive: [5] -0.0122 | [6] 0.0487 | [7] -0.0245 | [8] -0.0302 | [9] -0.00296 | [10] -0.0241 | [11] 0.0147 | [12] -0.00868 | [13] -0.0247 | [14] 0.0168 | [15] -0.172 | [16] -0.00571
